# Test results published in PMC4336329 (PLoS ONE, 2015).
# The whole screen tested about 310,000 compounds, of which about 2,200 (0.71%) showed an effect of 50% or more. Effects have a minus sign here. The list shows a part of the results.
# Target: human ether-à-go-go-related gene (hERG) potassium channel (human, UniProt Q12809)
# Experiment: primary screen, population patch clamp on CHO cells stably expressing hERG
# Sequence of human ether-à-go-go-related gene (hERG) potassium channel (Q12809 whole entry, looked up): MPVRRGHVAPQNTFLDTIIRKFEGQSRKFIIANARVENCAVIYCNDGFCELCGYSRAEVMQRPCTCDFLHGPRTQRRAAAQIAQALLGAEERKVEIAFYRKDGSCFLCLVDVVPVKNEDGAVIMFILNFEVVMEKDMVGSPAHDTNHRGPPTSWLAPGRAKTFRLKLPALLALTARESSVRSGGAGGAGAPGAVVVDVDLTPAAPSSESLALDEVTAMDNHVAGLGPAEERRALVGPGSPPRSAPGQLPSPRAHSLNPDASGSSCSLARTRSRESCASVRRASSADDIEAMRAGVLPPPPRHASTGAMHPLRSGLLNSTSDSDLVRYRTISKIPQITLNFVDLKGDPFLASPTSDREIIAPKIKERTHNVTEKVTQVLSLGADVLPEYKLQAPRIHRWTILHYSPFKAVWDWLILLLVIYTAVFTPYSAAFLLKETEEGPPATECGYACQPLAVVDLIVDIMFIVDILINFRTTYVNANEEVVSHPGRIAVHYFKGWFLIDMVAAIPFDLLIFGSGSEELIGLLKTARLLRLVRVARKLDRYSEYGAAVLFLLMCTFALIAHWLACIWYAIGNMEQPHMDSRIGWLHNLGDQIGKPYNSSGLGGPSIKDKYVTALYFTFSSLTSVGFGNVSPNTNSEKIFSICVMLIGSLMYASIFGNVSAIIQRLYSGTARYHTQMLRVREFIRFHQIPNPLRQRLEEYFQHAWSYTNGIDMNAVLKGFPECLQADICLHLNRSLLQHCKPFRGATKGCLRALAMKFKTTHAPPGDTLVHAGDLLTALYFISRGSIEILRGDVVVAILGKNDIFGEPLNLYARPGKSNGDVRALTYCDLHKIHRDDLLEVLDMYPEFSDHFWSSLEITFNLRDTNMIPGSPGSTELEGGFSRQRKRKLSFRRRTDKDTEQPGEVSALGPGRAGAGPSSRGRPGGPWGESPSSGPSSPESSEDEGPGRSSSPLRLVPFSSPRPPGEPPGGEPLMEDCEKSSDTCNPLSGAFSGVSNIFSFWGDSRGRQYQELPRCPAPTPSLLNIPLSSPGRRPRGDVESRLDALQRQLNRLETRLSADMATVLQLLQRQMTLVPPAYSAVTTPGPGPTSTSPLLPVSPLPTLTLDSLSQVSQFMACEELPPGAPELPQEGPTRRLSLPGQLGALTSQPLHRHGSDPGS
row,SMILES,"hERG current change (%, negative = inhibition) at 1uM [%]"
1,O=C(NC1CCCCC1)N(C1=NCCCCC1)c1ccc(Br)cc1,13.1
2,Cc1cc(C)cc(N2Cc3ccccc3C2)c1,1.93
3,COc1cc(/C=C/C(=O)OCC(=O)NCc2cccs2)ccc1OC(F)F,16
4,CC(C)C(C(=O)NCc1ccco1)N(C(=O)CNS(=O)(=O)c1ccccc1)C1CCCC1 (centres unmarked),13.6
5,COc1ccc(/C=C/C(=O)N2CCN(c3ccccn3)CC2)c2ccccc12,-0.658
6,CCN(CC)CCn1c(NC(=O)c2ccc(C(F)(F)F)cc2)nc2ccccc21,-4.82
7,N#C/C(=C\c1cccs1)C(=O)NCc1ccco1,6.94
8,CCn1c(SCC(=O)NNC(=O)c2ccc(OC)cc2)nnc1C1CC1,19.6
9,O=C(OCc1c(Cl)cccc1Cl)c1cnccn1,17
10,Fc1ccccc1NC(=S)N(CCCN1CCOCC1)Cc1cccnc1,0.592
11,CCN1CCN(c2ccc(S(=O)(=O)N3CCOCC3)cc2NC(=O)/C=C/c2ccc([N+](=O)[O-])cc2)CC1,-50.5
12,Fc1ccc(-c2csc(N3CCOCC3)n2)cc1,11.2
13,Cc1c(NC(=O)c2cc(-n3cnnc3)ccc2Cl)cccc1-c1nc2ccccc2o1,6.86
14,O=C(NCCc1c[nH]c2ccccc12)c1cncc(Br)c1,4.72
15,O=C1NC(c2ccccc2)CCC1(Cl)Cl (centres unmarked),14.4
16,O=[N+]([O-])c1ccc(-n2nnnc2-c2ccccc2)cc1,-3.86
17,OC(C#CCN1CCCC1)c1ccccc1 (centres unmarked),5.68
18,O=C(CCSc1ccc(Br)cc1)Nc1cccnc1,8.53
19,Fc1ccccc1Nc1nc(-c2ccncc2)nc2ccccc12,2.59
20,Cc1ccc(NC(=O)COC(=O)Cc2ccsc2)c(C)c1,2.91
21,COc1cc(CN(CCN(C)C)Cc2ccccc2)ccc1OCc1ccccc1.O=C(O)C(=O)O,6.51
22,CCOc1ccc(NS(=O)(=O)c2ccc(OCC)c3ncccc23)cc1,2.13

row,SMILES,"hERG current change (%, negative = inhibition) at 1uM [%]"
1,C=CCOc1ccc(/C=C/C(=O)OCC(=O)N2CCC(c3ccccc3)=N2)cc1,9.5
2,COc1cccc(/C=C2\CC(C)Cc3c2nc2ccccc2c3C(=O)O)c1OC (centres unmarked),15.7
3,COc1ccc(NC2(C#N)CCCCC2)cc1,2.84
4,COC(=O)c1[nH]c2ccccc2c1NC(=O)C(C)N1CC(C)OC(C)C1 (centres unmarked),10.2
5,CC(C)CCOP(=O)(c1ccc(N(C)C)cc1)C(O)c1ccc(Cl)cc1Cl (centres unmarked),11.9
6,CCN(CC)C(=O)CSc1nnc(CSc2ncccn2)n1C,-1.28
7,CN1C(=O)C(CC(=O)NC2CCCCC2)SC1=Nc1ccccc1 (centres unmarked),-16.7
8,CN(C)C=O.Cc1ccc2nc(SCC(=O)c3c(N)n(C)c(=O)n(C)c3=O)[nH]c2c1,-3.28
9,NS(=O)(=O)c1ccc(CCNC(=O)c2ccco2)cc1,-0.54
10,COc1ccnc(Oc2ccccc2)c1C(=O)N/C=N/OCc1ccccc1F,-6.16
11,CC(C)N(C(=O)c1sc2cc([N+](=O)[O-])ccc2c1Cl)C(C)C,-0.873
12,COc1ccc(/C=C2\SC(=O)N(CCNC(=O)CCS(=O)(=O)c3ccc(C)cc3)C2=O)cc1,14.5
13,COc1ccc(N(CC(=O)Nc2nc3ccc(C)cc3s2)S(=O)(=O)c2c(C)nn(C)c2C)cc1,9.07
14,COc1ccc(NC(=O)CSc2nn3c(=O)c(C)nnc3s2)cc1,13.5
15,O=[N+]([O-])c1ccc(CSC2=NCCS2)cc1,-0.335
16,CC1=C(C(=O)OCc2ccccc2)C(c2ccccc2Cl)NC(=O)N1C (centres unmarked),9.79
17,CC1=NN(c2ccccc2)C(=O)C1/C=C1/NC(=S)NC1=O (centres unmarked),14.2
18,CCCCn1c(N)c(N(CCC(C)C)C(=O)c2ccc3ccccc3c2)c(=O)[nH]c1=O,22
19,CC(NCCc1ccc(S(N)(=O)=O)cc1)C(=O)NCc1ccccc1.O=C(O)C(=O)O (centres unmarked),-8.15
20,CCOC(=O)C1=C(C)N(CC(C)C)C(=O)/C1=C\c1ccc(OCC(=O)Nc2ccccc2)cc1,11.8
21,NC(=O)c1cc([N+](=O)[O-])c(Cl)cc1NCc1ccccn1,10.5
22,CCCCN(CCCNC(=O)CN1C(=O)COc2ccc(S(=O)(=O)N3CCC(C)CC3)cc21)Cc1ccccc1,-12.6

row,SMILES,"hERG current change (%, negative = inhibition) at 1uM [%]"
1,CC(C)(C)NC(=O)NCc1ccco1,9.27
2,CCN(CC)S(=O)(=O)c1cc(NC(=O)CO/N=C(\N)c2ccccc2Cl)ccc1C,-0.373
3,Cc1ccc(Nc2ncccc2C(=O)O)cc1C,13.9
4,Cc1cc(C)c2nc(N3CCCC(C(=O)NC4CCCC4)C3)sc2c1 (centres unmarked),16.1
5,COc1ccc(C(=O)NCC(=O)OCC(=O)NCc2cccs2)cc1,13.3
6,CCOc1cc(C)c(C(C)C)cc1S(=O)(=O)N1CC(C)OC(C)C1 (centres unmarked),6.68
7,Cc1c(NC(=O)CSc2ncnc3c2cnn3-c2ccccc2)c(=O)n(-c2ccccc2)n1C,-26
8,COc1ccc(-n2nc3c(c2NC(=O)C2CC2)CS(=O)C3)cc1 (centres unmarked),10.2
9,CCN1CCN(Cc2c(C(=O)N/N=C(\C)c3ccc(Cl)c(Cl)c3)nnn2-c2nonc2N)CC1.Cl,4.17
10,CN(C)S(=O)(=O)c1ccc(-c2csc(N/N=C/c3ccc(O)cc3)n2)cc1,4.54
11,Cl.Fc1ccc(CN2C3=NCCN3c3ccccc32)cc1,-17.6
12,Nc1cccc2c1C(=O)N(CCOc1ccccc1F)C2=O,19.2
13,O=C(NCC1CCCO1)C1CC(=O)N(c2ccc(F)c(Cl)c2)C1 (centres unmarked),11.8
14,O=C(CCN1C(=O)[C@@H]2Cc3ccccc3CN2C1=O)N[C@H](C(=O)O)c1ccccc1,20.4
15,Cc1ccc(C(=O)OCC(=O)c2ccc(S(=O)(=O)N3CCCCC3)cc2)o1,-1.15
16,CCN(CC(=O)NCc1ccc(Cl)cc1)C(=O)c1oc2ccccc2c1C,-3.13
17,CC1CCN(c2ccc3nnc(CCC(=O)NCC(C)c4ccccc4)n3n2)CC1 (centres unmarked),-1.42
18,O=C(CSc1ccccc1)Nc1cccc(S(=O)(=O)N2CCOCC2)c1,2.3
19,O=C(Cc1c(F)cccc1Cl)Nc1nccs1,12.5
20,Cn1c(C(=O)NCc2ccco2)cc2c(=O)[nH]c3ccccc3c21,16.6
21,O=C(Nc1ccc(S(=O)(=O)N2CCCCC2)cc1)C1CCCO1 (centres unmarked),8.08
22,Cc1ccc(N/N=C2\COC(C)(C)CC2=O)cc1,8.74

row,SMILES,"hERG current change (%, negative = inhibition) at 1uM [%]"
1,C=CC1C(OC2OC(CO)C(O)C(O)C2O)OC=C(C(=O)OC)C1CC1CC(=O)CC(CC(=O)CCc2ccc(O)cc2)O1 (centres unmarked),7.61
2,CCCCC(Sc1nc(N)c(NC(=O)c2ccc(OC)cc2)c(=O)[nH]1)C(=O)O (centres unmarked),11.2
3,O=C(c1cccc(C(=O)N2CCN(c3ccccc3F)CC2)c1)N1CCN(c2ccccc2F)CC1,-1.98
4,CC(C)NC(=O)/C(=C\c1cccc([N+](=O)[O-])c1)NC(=O)c1ccccc1,-7.27
5,CCN(C1CCS(=O)(=O)C1)S(=O)(=O)c1cccc([N+](=O)[O-])c1 (centres unmarked),1.52
6,CC(=O)/C(=N\Nc1ccccc1)Sc1cccc2cccnc12,1.5
7,Cc1ccc(C)c(OCC(=O)Nc2c[nH]c(=O)[nH]c2=O)c1,18.4
8,Cc1cc(SCC(=O)Nc2ccccc2C)nc(C)n1,5.15
9,Cc1c(NC(=S)NC(=O)CCc2ccccc2)c(=O)n(-c2ccccc2)n1C,8.36
10,Cc1cc(C)n(-c2ccc(C(=O)Nc3ccc(S(=O)(=O)NCc4ccco4)cc3)cc2)n1,2.49
11,Cc1ccccc1OCC(=O)Nc1ccc(S(=O)(=O)N2CCCC2)cc1,0.97
12,Cc1ccc(OCc2ccc(C(=O)Nc3nc4ccccc4n3Cc3ccccc3)o2)c([N+](=O)[O-])c1,11.7
13,CS(=O)(=O)N1N=C(c2ccco2)CC1c1ccc(Br)cc1 (centres unmarked),-0.59
14,Cc1cc(C)nc(NS(=O)(=O)c2ccc(NC(=O)Nc3ccccc3F)cc2)n1,7.57
15,CC(C)(CO)CNC1CCCN(C2Cc3ccccc3C2)C1 (centres unmarked),11.7
16,CCOc1cc(NC(=S)NCC2CCCO2)c(OCC)cc1NC(=O)CC(C)C (centres unmarked),7.85
17,COC(=O)[C@@H]1C[C@]2(Br)c3ccccc3N(S(=O)(=O)c3ccccc3)[C@@H]2N1C(=O)OC,10.3
18,CCOC(=O)c1c(C)[nH]c(C)c1C(=O)COC(=O)c1ccc(S(=O)(=O)C(F)F)cc1,10.1
19,O=C(Nc1nccs1)C1CCN(S(=O)(=O)c2ccc(F)cc2)CC1,10.7
20,CSC(=Nc1ccccc1)Nc1ccccc1,11.2
